# Test results as given in the supplement of paper PMC8728848.
# The list shows a part of the results.
# Key:
# Experiment in all cases: glycan array binding signal (z-score within array); higher = stronger binding
# Settings in all cases: glycan notation: IUPAC condensed, linker removed
# [1] = biological target: Gal(b1-3)[Fuc(a1-4)]GlcNAc
# In short: (§1)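 Glycan array data came from 3228 arrays in the Consortium for Functional Glycomics database, and only arrays with an available protein sequence were kept. Glycan names were put into IUPAC-condensed notation, and columns mapping to the same glycan were averaged. The binding signal is a within-array Z-score, averaged across arrays of one protein sequence run at different concentrations or buffers and across linkers. A negative Z-score can be read as non-binding.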
# [2] = biological target: Gal(b1-3)[Fuc(a1-4)]GlcNAc(b1-3)Gal(b1-3)[Fuc(a1-4)]GlcNAc
# In short: as §1
# [3] = biological target: Gal(b1-3)[Fuc(a1-4)]GlcNAc(b1-3)Gal(b1-4)GlcNAc
# In short: as §1
# [4] = biological target: Gal(b1-3)[Fuc(a1-4)]GlcNAc(b1-3)Gal(b1-4)[Fuc(a1-3)]GlcNAc
# In short: as §1
# [5] = biological target: Gal(b1-3)[GlcNAc(b1-6)]GalNAc
# In short: as §1
# [6] = biological target: Gal(b1-3)[GlcNAc(b1-6)]GlcNAc
# In short: as §1
# [7] = biological target: Gal(b1-3)[Neu5Ac(a2-6)]GalNAc
# In short: as §1
# [8] = biological target: Gal(b1-3)[Neu5Ac(a2-6)]GlcNAc
# In short: as §1
# [9] = biological target: Gal(b1-3)[Neu5Ac(a2-6)]GlcNAc(a1-4)Gal(b1-4)Glc
# In short: as §1
# [10] = biological target: Gal(b1-3)[Neu5Ac(b2-6)]GlcNAc
# In short: as §1
# [11] = biological target: Gal(b1-4)GalNAc(a1-3)[Fuc(a1-2)]Gal(b1-4)GlcNAc
# In short: as §1
# [12] = biological target: Gal(b1-4)GalNAc(b1-3)[Fuc(a1-2)]Gal(b1-4)GlcNAc
# In short: as §1
# [13] = biological target: Gal(b1-4)Glc
# In short: as §1
# [14] = biological target: Gal(b1-4)Glc6S
# In short: as §1
# [15] = biological target: Gal(b1-4)GlcNAc
# In short: as §1
# [16] = biological target: Gal(b1-4)GlcNAc(b1-2)Man(a1-3)[Gal(b1-4)GlcNAc(b1-2)Man(a1-6)]Man(b1-4)GlcNAc(b1-4)GlcNAc
# In short: as §1
# [17] = biological target: Gal(b1-4)GlcNAc(b1-3)Gal(b1-3)GlcNAc
# In short: as §1
# [18] = biological target: Gal(b1-4)GlcNAc(b1-3)Gal(b1-4)Glc
# In short: as §1
# [19] = biological target: Gal(b1-4)GlcNAc(b1-3)Gal(b1-4)GlcNAc
# In short: as §1
# [20] = biological target: Gal(b1-4)GlcNAc(b1-3)Gal(b1-4)GlcNAc(b1-3)Gal(b1-4)GlcNAc
# In short: as §1
# [21] = biological target: Gal(b1-4)GlcNAc(b1-3)Gal(b1-4)[Fuc(a1-3)]GlcNAc(b1-3)Gal(b1-4)[Fuc(a1-3)]GlcNAc
# In short: as §1
# [22] = biological target: Gal(b1-4)GlcNAc(b1-3)GalNAc
# In short: as §1
# [23] = biological target: Gal(b1-4)GlcNAc(b1-3)[Gal(b1-4)GlcNAc(b1-6)]GalNAc
# In short: as §1
# [24] = biological target: Gal(b1-4)GlcNAc(b1-6)GalNAc
# In short: as §1
# [25] = biological target: Gal(b1-4)GlcNAc(b1-6)[Gal(b1-3)]GalNAc
# In short: as §1
# [26] = biological target: Gal(b1-4)GlcNAc(b1-6)[Gal(b1-3)]GlcNAc
# In short: as §1
# [27] = biological target: Gal3S(b1-3)GalNAc
# In short: as §1
# [28] = biological target: Gal3S(b1-3)GlcNAc
# In short: as §1
# [29] = biological target: Gal3S(b1-3)[Fuc(a1-4)]GlcNAc
# In short: as §1
# [30] = biological target: Gal3S(b1-4)Glc
# In short: as §1
# [31] = biological target: Gal3S(b1-4)Glc6S
# In short: as §1
# [32] = biological target: Gal3S(b1-4)GlcNAc
# In short: as §1
# [33] = biological target: Gal3S(b1-4)GlcNAc6S
# In short: as §1
# [34] = biological target: Gal3S6S(b1-4)GlcNAc
# In short: as §1
# [35] = biological target: Gal3S6S(b1-4)GlcNAc6S
# In short: as §1
# [36] = biological target: Gal4S(b1-4)GlcNAc
# In short: as §1
# [37] = biological target: Gal4S6S(b1-4)GlcNAc
# In short: as §1
# [38] = biological target: Gal6S(b1-4)Glc
# In short: as §1
binder,measurement,setting,value
"IDGF2 (Drosophila melanogaster), Q9V3D4 (protein) MKAWIWFTFVACLFAASTEAASNLVCYYDSSSYTREGLGKLLNPDLEIALQFCSHLVYGYAGLRGENLQAYSMNENLDIYKHQFSEVTSLKRKYPHLKVLLSVGGDHDIDPDHPNKYIDLLEGEKVRQIGFIRSAYDLVKTYGFDGLDLAYQFPKNKPRKVHGDLGLAWKSIKKLFTGDFIVDPHAALHKEQFTALVRDVKDSLRADGFLLSLTVLPNVNSTWYFDIPALNGLVDFVNLATFDFLTPARNPEEADYSAPIYHPDGSKDRLAHLNADFQVEYWLSQGFPSNKINLGVATYGNAWKLTKDSGLEGVPVVPETSGPAPEGFQSQKPGLLSYAEICGKLSNPQNQFLKGNESPLRRVSDPTKRFGGIAYRPVDGQITEGIWVSYDDPDSASNKAAYARVKNLGGVALFDLSYDDFRGQCSGDKYPILRAIKYRLHHHHHH",glycan array binding signal (z-score),[1],-0.285
same,glycan array binding signal (z-score),[2],0.307
same,glycan array binding signal (z-score),[3],0.056
same,glycan array binding signal (z-score),[4],-0.21
same,glycan array binding signal (z-score),[5],-0.208
same,glycan array binding signal (z-score),[6],-0.046
same,glycan array binding signal (z-score),[7],-0.24
same,glycan array binding signal (z-score),[8],-0.096
same,glycan array binding signal (z-score),[9],-0.325
same,glycan array binding signal (z-score),[10],-0.472
same,glycan array binding signal (z-score),[11],-0.289
same,glycan array binding signal (z-score),[12],-0.185
same,glycan array binding signal (z-score),[13],-0.257
same,glycan array binding signal (z-score),[14],-0.199
same,glycan array binding signal (z-score),[15],-0.03
same,glycan array binding signal (z-score),[16],-0.133
same,glycan array binding signal (z-score),[17],0.088
same,glycan array binding signal (z-score),[18],-0.086
same,glycan array binding signal (z-score),[19],-0.325
same,glycan array binding signal (z-score),[20],-0.353
same,glycan array binding signal (z-score),[21],0.098
same,glycan array binding signal (z-score),[22],0.065
same,glycan array binding signal (z-score),[23],0.121
same,glycan array binding signal (z-score),[24],-0.057
same,glycan array binding signal (z-score),[25],0.086
same,glycan array binding signal (z-score),[26],-0.368
same,glycan array binding signal (z-score),[27],-0.071
same,glycan array binding signal (z-score),[28],-0.165
same,glycan array binding signal (z-score),[29],0.072
same,glycan array binding signal (z-score),[30],0.154
same,glycan array binding signal (z-score),[31],0.076
same,glycan array binding signal (z-score),[32],0.235
same,glycan array binding signal (z-score),[33],-0.148
same,glycan array binding signal (z-score),[34],-0.015
same,glycan array binding signal (z-score),[35],-0.362
same,glycan array binding signal (z-score),[36],-0.393
same,glycan array binding signal (z-score),[37],-0.386
same,glycan array binding signal (z-score),[38],0.524
